Hit rate of the full screen: of about 48,000 compounds, about 1,200 (2.5%) were called active. Inconclusive results (about 2%) are left out.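 The calls were made as follows: active = activation of at least 60% and not above a set upper limit (about 1 call in 100 departs from these limits); inconclusive = activation of 40% to 60%, or above that upper limit; inactive = activation under 40%.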 Some of the results follow.
Each compound was assayed against Probable G-protein coupled receptor 32 (Homo sapiens) (UniProt O75388) (assay: qHTS for Agonists of Human Resolvin D1 Receptor DRV1). Details: CHO-K1 GPR32 beta-arrestin PathHunter luminescence, 90 min; at 76.9 µM; hits give high values; zero percent set by DMSO-only wells.
Description: Endogenous resolution of inflammation is known to be transduced through various GPCRs and their natural mediators of lipid nature. Resolvin D1 (RvD1) is one of the active players in resolution of acute inflammation through regulation of anti-inflammatory pathways; it is known to enhance phagocytosis of human macrophages, limits neutrophils infiltration, etc. […] The search for GPR32-activating small molecules with anti-inflammatory effects similar to its natural omega-3 derivative ligand in order to use them as research tools for further studies of inflammation and its resolution was the goal of this screening project. For primary screening assay, we used CHO-K1 GPR32 beta-arrestin cell line (DiscoveRx, #93-0321C2A) and the PathHunter(R) beta-Arrestin Assay (DiscoveRx) which measures recruitment of beta-arrestin to the GPR32 and generates chemiluminescent signal. These engineered cells stably transfected with GPR32 co-express GPR32-fused small 42-amino acid fragment of beta-Gal called ProLinktrade mark, and […] -tagged beta-Arrestin fusion protein. When GPR32 is activated by a ligand, it stimulates binding of beta -Arrestin to ProLink-tagged GPR32, and two parts of beta-Gal complement forming a functional enzyme. Upon substrate (PathHunter(R) Detection reagent) addition, beta-Gal hydrolyzes it and generates a chemiluminescent signal.
The cells were thawed and plated in thawing media containing F-12 HAM (Invitrogen, #11765-054), 10% FBS (Invitrogen, #10082), 1x Glutamine, and 1x Pen/Strep onto the 175-mm flask for 24 hours. Then, thawing media was replaced with Growth media which contains 800microg/mL Geneticin (Invitrogen, #10131) and 300microg/mL Hygromycin B (Invitrogen, #10687) in addition to described above. For the assay, the cells were harvested at ~80% confluent stage with Cell Dissociation buffer (Gibco, #13151), and seeded at 2,500 cells/ 3microL/well in assay media (PathHunter(R) Cell Plating Reagent, DiscoverX, #93-0563R1B) using MultiDrop Combi dispenser (Thermo Scientific, Logan, UT) onto white solid bottom tissue culture-treated 1536-well plates (Greiner # 789173-F) and allowed to attach overnight at 37 degrees C, 95% humidity, 5% CO2, . Next, 23nL/well of compound solutions in DMSO were added with a Pin Tool (Kalypsis, San Diego, CA) to the assay plates. As the basal control (EC0), 23 nL/well of DMSO was used on each plate. The cells were incubated in the presence of compounds or DMSO for 90 minutes at 37 degrees C, 5% CO2. Subsequently, 1.5microL/well of PathHunter(R) Detection Reagent prepared per the manufacturer's instructions was added to the assay plates with BioRAPTR FRDtrade mark dispenser (Beckman Coulter, San Francisco, CA) and incubated for 1 hour at ambient temperature prior to the measurement of the luminescent signal on ViewLux(R) uHTS Microplate Imager (Perkin Elmer, Waltham, MA).

UniProt O75388, sequence (O75388 whole entry, looked up): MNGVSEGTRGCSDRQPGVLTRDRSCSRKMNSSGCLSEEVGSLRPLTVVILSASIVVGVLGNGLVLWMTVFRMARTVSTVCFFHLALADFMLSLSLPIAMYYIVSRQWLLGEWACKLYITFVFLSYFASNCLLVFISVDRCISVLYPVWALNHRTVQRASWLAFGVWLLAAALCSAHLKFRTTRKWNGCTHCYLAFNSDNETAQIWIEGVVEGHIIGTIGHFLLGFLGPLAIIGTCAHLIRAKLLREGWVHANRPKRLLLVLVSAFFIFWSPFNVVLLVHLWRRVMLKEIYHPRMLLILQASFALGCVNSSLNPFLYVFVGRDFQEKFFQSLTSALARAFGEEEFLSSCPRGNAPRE

activation, inactive:
O=C(C1CCC(Cn2c(=O)c3sccc3n(Cc3ccccc3F)c2=O)CC1)N1CCOCC1 (stereo not drawn) -17.1%
COc1ccccc1C(=O)Nc1ccc(-c2cc(C(F)(F)F)nn2-c2ccccc2)cc1 -28.6%
CCOC(=O)c1c(C)[nH]c(C)c1S(=O)(=O)N1CCCC(C(=O)N2CCN(c3cccc(Cl)c3)CC2)C1 (stereo not drawn) 8.51%
O=C(NCc1ccccc1Cl)c1ccc2c(c1)NC(=O)C(CS(=O)(=O)Cc1ccc(Cl)cc1)N2 (stereo not drawn) -23.5%
O=C(Nc1ccc(F)c(F)c1)C(c1ccccc1)N1Cc2ccccc2C1=O (stereo not drawn) -21.2%
Cc1ccc2nc(-c3ccc(C)s3)c(Nc3ccc4c(c3)OCCO4)n2c1 -44.4%
COc1ccc(CCNC(=O)CN(c2ccccc2)S(=O)(=O)N(C)C)cc1 -1.96%
COc1ccccc1-c1nn(CCC(=O)Nc2ccccc2)c2nc(C)cc(C)c12 1.69%
CCN(CC)CCNC(=O)c1cc2c(-c3cccc(OC)c3)nn(C)c2s1 6.33%
Cc1cccc2sc(N(Cc3cccnc3)C(=O)c3ccco3)nc12 -27%
COc1ccccc1OCC(=O)NCCS(=O)(=O)N1CCN(c2ccccc2OC)CC1 -12.5%
Cc1ccc2[nH]cc(C(c3ccccc3)c3ccc(Cl)s3)c2c1 (stereo not drawn) 30.9%
Cc1nn(C(C)C(=O)NCc2ccco2)c(=O)c2nn(-c3ccccc3)c(C)c12 (stereo not drawn) 1.11%
Cc1ccc(C(=O)N2CCN(CCc3ccncc3)CC2)cc1 0.356%
CCOc1ccccc1NC(=O)Cn1c(=O)n(CCCC(=O)NCc2ccc(C)cc2)c(=O)c2ccccc21 -0.431%
CN1C(=O)c2ccccc2Sc2ccc(NC(=O)N3CCN(c4ccc(F)cc4)CC3)cc21 -3.89%
COc1ccc(-c2nc(S(=O)(=O)c3ccccc3)c(N3CCC(C)CC3)o2)cc1 -7.73%
COc1ccc(NC(=O)C(NS(=O)(=O)c2cccc3nsnc23)C(C)C)cc1OC (stereo not drawn) -19.8%
COc1ccc(S(=O)(=O)Nc2cccc(-c3ccc(N4CCCCC4)nn3)c2)cc1F -6.46%
Oc1ccc(NCc2ccccc2OCc2ccccc2)cc1 -84.8%
CCOc1ccc(CNC(=O)c2cc3cc(S(=O)(=O)N4CCCCC4)ccc3n2C)cc1 -3.21%
Cc1ccc(Cl)cc1-n1c(SCC(=O)NCc2ccccc2)nc2n[nH]c(C)c2c1=N 9.34%
CSc1ccc(CCNC(=O)CN2C(=O)COc3ccc(S(=O)(=O)N4CCCCCC4)cc32)cc1 5.66%
CCOC(=O)c1cccc(NC(=O)c2cc(C)nc3c2c(C)nn3-c2ccc(C)cc2)c1 -13.3%
COc1cc(Nc2nc3ccc(Cl)cc3nc2-n2nc(C)cc2C)cc(OC)c1 -18.1%
Cc1ccc(Cl)cc1NC(=O)CCn1cnc2ccccc2c1=O 8.08%
CCOC(=O)c1ccc(NC(=O)C2=C(C)C(=O)OC23CCN(C(C)=O)CC3)cc1 -9.74%
O=C(CN1C(=O)COc2ccc(S(=O)(=O)NC3CCCC3)cc21)NCc1ccccc1Cl -9.62%
Cn1ncc2c(Nc3cccc(C#N)c3)ncnc21 -7.62%
CCc1cccc(C)c1NC(=O)CSc1n[nH]c(-c2ccccc2)n1 -1.49%
Cc1cc(C)cc(NC(=O)C(=O)NCC(c2cccnc2)N2CCOCC2)c1 (stereo not drawn) 3.7%
Cc1ccccc1OCCSc1nnc(-c2cccs2)o1 5.89%
Cc1nc(Nc2ncc(C(=O)Nc3c(C)cccc3Cl)s2)cc(N2CCN(CCO)CC2)n1 28.5%
COc1ccc(Cl)cc1NC(=O)Cn1c(=O)n(Cc2ccc(F)cc2)c(=O)c2cccnc21 -8.69%
CCN(CCO)CCCC(C)Nc1ccnc2cc(Cl)ccc12 (stereo not drawn) -1.44%
CCC(C(=O)NCCC(C)C)N(C(=O)Cn1nnc(-c2ccc(C)cc2)n1)c1cccc(O)c1 (stereo not drawn) -10.8%
Cc1ccc(NC(=O)Cn2c(=O)n(CCC(C)C)c(=O)c3cccnc32)cc1C 13.7%
COc1ccccc1N1CCN(C(=O)Cn2c(=O)nc(-c3ccccc3)c3ccccc32)CC1 2.94%
CC1CN(C(=O)N2CCC(C(=O)NCc3ccccc3F)CC2)c2cc(Cl)ccc2O1 (stereo not drawn) -0.525%
CCOc1ccc(NC(=O)C(C)n2c(=O)cc(-c3ccccc3)c3c(C)nn(C)c32)cc1 (stereo not drawn) -11.8%
Cc1ccc(Cl)cc1-n1ncc2c(Nc3ccc4c(c3)OCCO4)ncnc21 -6.12%
O=C(c1ccc2c(c1)N(Cc1c(F)cccc1Cl)C(=O)c1ccccc1S2)N1CCCC1 -10.8%
CCc1ccc(NC(=O)c2ccc(Cn3nc(N4CCN(c5ccccc5)CC4)ccc3=O)o2)cc1 0.331%
COc1cc(NC(=O)CN2C(=O)COc3ccc(S(=O)(=O)NC4CCCC4)cc32)cc(OC)c1 -16.5%
CC(=O)N1CCCC1c1nc2ccccc2n1Cc1ccc(F)cc1 (stereo not drawn) 4.84%
COc1ccc(-c2cc3ncc(C(=O)c4cc([N+](=O)[O-])ccc4O)cn3n2)cc1 13.7%
O=C(Nc1cccc2cccnc12)c1ccc(-c2cccc(Cl)c2)o1 11.3%
CC1CCc2c(sc3nnn(CC(=O)Nc4c(C(C)C)cccc4C(C)C)c(=O)c23)C1 (stereo not drawn) -9.84%
COc1cc(NS(=O)(=O)c2c(C(=O)N3CCCCC3)c(C)n(C)c2C)cc(OC)c1OC 6.26%
CCCn1c2ccccc2c2cnn(CC(=O)NCCCN(CC)c3ccccc3)c(=O)c21 -25.7%
O=C(Nc1sc2c(c1C(=O)NCC1CCCO1)CCC2)c1cc(=O)c2cc(Cl)ccc2o1 (stereo not drawn) -9.93%
Cn1nnnc1SCCCNCc1cc(Br)ccc1OCc1ccccc1F 26.3%
CCOC(=O)c1cc(-c2ccccc2)n(CC(=O)Nc2ccccc2OCC)c1C -11.4%
